Among all 310,000 compounds or so, about 14,000 (4.5%) showed an effect of 50% or more. The effect is printed as a negative number. Some of the results follow.
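Further: peak tail current of the secondary pulse compared with the same well before compound.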

The target of the test is human ether-à-go-go-related gene (hERG) potassium channel (human, UniProt Q12809). The experiment in a line: primary screen, population patch clamp on CHO cells stably expressing hERG.
Chain of human ether-à-go-go-related gene (hERG) potassium channel (Q12809 whole entry, looked up): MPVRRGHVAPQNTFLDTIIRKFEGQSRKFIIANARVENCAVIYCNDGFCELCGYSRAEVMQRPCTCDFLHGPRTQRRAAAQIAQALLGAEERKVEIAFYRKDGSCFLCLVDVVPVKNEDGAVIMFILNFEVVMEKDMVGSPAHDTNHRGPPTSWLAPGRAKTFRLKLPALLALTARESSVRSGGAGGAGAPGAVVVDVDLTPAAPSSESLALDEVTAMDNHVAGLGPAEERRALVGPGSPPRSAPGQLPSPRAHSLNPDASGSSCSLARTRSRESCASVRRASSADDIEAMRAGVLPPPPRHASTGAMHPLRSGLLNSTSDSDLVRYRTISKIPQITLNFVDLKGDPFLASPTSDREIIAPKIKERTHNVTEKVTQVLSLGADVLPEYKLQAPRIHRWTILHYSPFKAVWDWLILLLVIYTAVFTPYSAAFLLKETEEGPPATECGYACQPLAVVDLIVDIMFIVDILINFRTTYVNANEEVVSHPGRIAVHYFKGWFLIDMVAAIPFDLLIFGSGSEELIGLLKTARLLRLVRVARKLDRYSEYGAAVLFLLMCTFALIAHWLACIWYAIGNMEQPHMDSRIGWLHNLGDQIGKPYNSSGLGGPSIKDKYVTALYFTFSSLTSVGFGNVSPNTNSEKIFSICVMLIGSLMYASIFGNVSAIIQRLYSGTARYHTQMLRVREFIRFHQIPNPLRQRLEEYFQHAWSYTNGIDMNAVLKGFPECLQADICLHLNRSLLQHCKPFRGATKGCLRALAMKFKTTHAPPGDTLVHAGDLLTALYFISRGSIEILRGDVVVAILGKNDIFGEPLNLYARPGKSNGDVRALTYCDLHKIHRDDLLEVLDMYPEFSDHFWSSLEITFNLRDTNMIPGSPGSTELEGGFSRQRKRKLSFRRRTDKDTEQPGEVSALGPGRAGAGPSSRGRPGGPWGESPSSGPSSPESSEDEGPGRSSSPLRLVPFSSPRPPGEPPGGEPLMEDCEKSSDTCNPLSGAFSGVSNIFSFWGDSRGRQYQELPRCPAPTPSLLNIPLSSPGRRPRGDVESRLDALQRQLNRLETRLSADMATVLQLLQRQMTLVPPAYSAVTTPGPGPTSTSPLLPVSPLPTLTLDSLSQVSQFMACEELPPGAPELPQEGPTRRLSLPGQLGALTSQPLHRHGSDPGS
For `CSc1nc2ccc(C)cc2c(=O)n1-c1cccnc1`, the “hERG current change (%, negative = inhibition) at 10uM” value is on record as -3.76%.

As to `COc1ccc(C(=O)Oc2ccc3ccc(=O)oc3c2)cc1`, the “hERG current change (%, negative = inhibition) at 10uM” value is on record as 32.4%. `COc1ccc(N2CCN(C(=O)c3cccc(S(=O)(=O)N4CCCc5ccccc54)c3)CC2)cc1`: the “hERG current change (%, negative = inhibition) at 10uM” value was -21.4%.

Consider `COc1ccc(C)cc1S(=O)(=O)n1cnc2ccccc21`, for which the “hERG current change (%, negative = inhibition) at 10uM” value amounted to 12%. On to `O=C(COc1ccccc1)Nc1nnc(-c2ccc(Cl)s2)o1`, for which the “hERG current change (%, negative = inhibition) at 10uM” value was -1.67%. Next, `Cn1c(=O)c2c(nc(OCCc3ccccc3)n2C)n(C)c1=O`: 7.2%; `CN(Cc1ccccc1)Cc1nc2c(c(=O)n(C)c(=O)n2C)n1Cc1ccc(F)cc1`: -55.6%; `CCOC(=O)N/N=C/c1cccc(Cl)c1Cl`: 5.82%. Regarding `CCCN1CCc2c(sc3nc(SC)n(-c4ccccc4)c(=O)c23)C1`, the “hERG current change (%, negative = inhibition) at 10uM” value turned out to be 15%.

For `COc1ccc(OC)c(C(=O)Cn2cnc3ccccc3c2=O)c1`, the “hERG current change (%, negative = inhibition) at 10uM” value is given as -5.63%. On to `COCc1cc(C)nc(SCC(=O)Nc2ccc(C)c(C)c2)c1C#N`, for which the “hERG current change (%, negative = inhibition) at 10uM” value turned out to be 1.53%. Next, `Cc1cccc[n+]1CC(=O)c1ccc2c(c1)OCCO2.[Br-]`: 11.8%; `COc1cccc(-c2csc(N3CCN(C(=O)Nc4ccccc4OC)CC3)n2)c1`: -23.7%. On to `COc1ccc2[nH]c(=O)c(CN(CC3CCCO3)C(=S)Nc3cccc(C)c3)cc2c1` (centres unmarked), for which the “hERG current change (%, negative = inhibition) at 10uM” value came to 16.3%. In the case of `COc1ccc(CCNC(=O)/C=C\c2ccccc2)cc1OC`, the “hERG current change (%, negative = inhibition) at 10uM” value was -7.74%. Next, `CC[N+](CC)(CC)CCOc1ccc(/C=C/c2ccccc2)cc1.[I-]`: -46.6%.

Consider `COc1ccc2nc(NC(=O)CSc3nnc(N)s3)sc2c1`, for which the “hERG current change (%, negative = inhibition) at 10uM” value is given as 3.74%. Next, `CCOC(=O)C1CCN(C(=O)C2CCCN(S(=O)(=O)c3ccc(OCC)c(Cl)c3)C2)CC1` (centres unmarked): -40.8%. Take `NNc1nc(C(F)(F)F)nc2ccccc12`: the “hERG current change (%, negative = inhibition) at 10uM” value is on record as -3.77%.

On to `CC(NC(=O)CNC(=S)N(Cc1cccs1)C1CCCC1)c1ccccc1` (centres unmarked), for which the “hERG current change (%, negative = inhibition) at 10uM” value is -11.8%. Regarding `Oc1c(C(c2ccco2)N2CCC3(CC2)OCCO3)sc2ncnn12` (centres unmarked), the “hERG current change (%, negative = inhibition) at 10uM” value came out at 1.38%. Consider `Cl.Clc1ccccc1CN1CCN(/N=C/c2ccncc2)CC1`, for which the “hERG current change (%, negative = inhibition) at 10uM” value is listed as -24.3%. `CC(=O)NCCC(Cc1ccccc1)c1ccco1` (centres unmarked): the “hERG current change (%, negative = inhibition) at 10uM” value was found to be 5.91%.

Turning to `N#CCSc1nc2c(c(C3CC=CCC3)c1C#N)CCC2` (centres unmarked), the “hERG current change (%, negative = inhibition) at 10uM” value is listed as 11.8%. Regarding `COc1cccc(CNC(=O)c2ccc(C)c(NC3=NC4CS(=O)(=O)CC4S3)c2)c1` (centres unmarked), the “hERG current change (%, negative = inhibition) at 10uM” value is -8.85%. Turning to `CC/C(=N/O)c1cnnc(SC)n1`, the “hERG current change (%, negative = inhibition) at 10uM” value came to 6.56%. Next, `COc1cccc(-c2ccc(NC(=O)C3CCCN(CCCn4nc(C)cc4C)C3)cc2)c1` (centres unmarked): -66%; `COc1ccc(OC(C)C(=O)N2CCC(C)CC2)cc1` (centres unmarked): -5.47%.

Turning to `CCOC(=O)c1cnc2ccc(C)cc2c1NCCO`, the “hERG current change (%, negative = inhibition) at 10uM” value is -66.4%. For `CCc1nnc(NC(=O)c2cccc(C(=O)Nc3nnc(CC)s3)n2)s1`, the “hERG current change (%, negative = inhibition) at 10uM” value is -30.5%. As to `Cc1ccc(C)c(NC(=S)N2CCN(CCO)CC2)c1`, the “hERG current change (%, negative = inhibition) at 10uM” value is reported as -4.63%. Consider `O=C(Cc1c[nH]c2ccccc12)N/N=C/c1ccc(F)cc1`, for which the “hERG current change (%, negative = inhibition) at 10uM” value came out at 6.33%.

In the case of `Cc1ccc(C)c(NC(=O)CCC(=O)OC(C(=O)c2ccccc2)c2ccccc2)c1` (centres unmarked), the “hERG current change (%, negative = inhibition) at 10uM” value is given as -20.8%.

In the case of `Cc1c(Cc2ccc3c(c2)OCO3)sc(NC(=O)C2CC2)c1C(N)=O`, the “hERG current change (%, negative = inhibition) at 10uM” value is reported as -4.31%. As for `CC1CC(NC(=O)c2cnc3n(c2=O)CCS3)CC(C)(C)C1` (centres unmarked), the “hERG current change (%, negative = inhibition) at 10uM” value is on record as -2.39%. With `CN(C)C(CNC(=O)c1ccc(OCc2cn3ccccc3n2)cc1)c1ccco1` (centres unmarked), the “hERG current change (%, negative = inhibition) at 10uM” value is on record as -4.67%.

Turning to `COc1ccc(Cl)cc1NC(=O)c1cccc(NC(=O)CCC(=O)O)c1`, the “hERG current change (%, negative = inhibition) at 10uM” value turned out to be 6.88%. For `Cc1ccc(C(=O)Nc2cc(C)c(OCC(=O)N3CCOCC3)c(C)c2)cc1`, the “hERG current change (%, negative = inhibition) at 10uM” value is -11.3%. For `COc1ccc(C(=O)OCC(=O)NCC2CCCCC2)cc1S(=O)(=O)N1CCCc2ccccc21`, the “hERG current change (%, negative = inhibition) at 10uM” value amounted to 10.6%.

As for `CCOc1cc(S(=O)(=O)NCCCN2CCOCC2)c(C)cc1C`, the “hERG current change (%, negative = inhibition) at 10uM” value is recorded as 12.4%. Consider `COc1ccc(C(=O)N(Cc2nc(-c3ccc(C)cc3)no2)C2CCCCC2)cc1OC`, for which the “hERG current change (%, negative = inhibition) at 10uM” value is listed as -9.71%. Take `O=C(C1CCCO1)N1CCN(C(=S)Nc2ccccc2F)CC1` (centres unmarked): the “hERG current change (%, negative = inhibition) at 10uM” value is listed as -4.83%. Next, `COc1ccc(-n2nc(C(=O)NCC(=O)NCCCN3CCN(C)CC3)c3ccccc3c2=O)cc1OC`: 18.9%; `CSc1nc2c(c(=O)[nH]1)C(c1ccncc1)C(C(=O)OC(C)C)=C(C)N2` (centres unmarked): -0.441%.

The values above are taken from paper PMC4336329 (PLoS ONE, 2015).
